Among all 150,000 compounds or so, about 540 (0.36%) showed an effect of 50% or more. The list shows a part of the results.
System: Plasmodium falciparum
Assay: Primary screen in NF54 nanoGlo assay, in single point, at 2uM, 72h; a lower Z score goes with more inhibition
Type: functional, Erythrocyte
Settings: timepoint 72 hour

SMILES	% Inhibition [%]	Z score
CC(=O)N1CCC(Nc2cc([C@H]3CCOC3)nc(N3CC(O)C3)n2)CC1	-8	1.61
CC(C)C(C(=O)NC1CCc2nccn2C1)N1CCCCC1 (stereo not given)	-8	1.57
Cc1cc(C(=O)N(C(C)C)C2CC2)ccc1N	-8	1.27
COCCN(Cc1cc2ccc(Cl)cc2nc1N1CCC[C@H](CO)C1)C(=O)c1sccc1C	2	-0.41
CN1CCN(C)[C@@H](CC(=O)NCCCCc2ccccn2)C1	-14	1.55
O=c1[nH]c([C@H]2CCC(F)(F)C2)nc2ccc(Br)cc12	-10	1.02
CC(C)c1noc(CN(C)CCN2CCN(c3ccccc3)CC2)n1	-12	1.04
NC(=O)NC1CCC(C(=O)N2CCC[C@H]2C(=O)Nc2cc(Cl)cc(Cl)c2)CC1 (stereo not given in full)	-5	0.64
O=C(N[C@H]1CCS(=O)(=O)C2(CCC2)C1)c1cc(F)cnc1O	5	-1
CCOC(=O)N1CCc2c(nc(-c3ccc(C)cc3)n(CC(=O)Nc3ccccc3F)c2=O)C1	-13	2.31
CN1CCCc2cc(C(=O)NCc3cccnc3)sc21	-9	1.77
COc1nc2c(cc1CN[C@@H](C)CN(C)C)C(=O)N(C1CCCC1)C2	1	-0.11
CCn1cc(CNc2ccc3nc(N(C)C)oc3c2)cn1	-9	1.27
O[C@H](c1ccccc1)c1nncn1Cc1nnc(-c2ccccc2)s1	-7	1.28
Cc1[nH]ncc1C(=O)N1CCCN(CC(F)F)CC1	-7	0.98
O=C(Nc1ccccc1C(=O)N1CCN(c2cnccn2)CC1)c1cccs1	-6	1
CCn1ccc(CN2CCC[C@H](c3nc(C)n[nH]3)C2)n1	2	-0.43
CC(C)n1nccc1C(=O)NCCOC1CCCCC1	-7	1.18
COCCCn1c(C)cc(C(=O)N(CCN2CCOCC2)C2CCOCC2)c1C	-7	1.21
CC(C)(CCC#N)CN[C@H]1CCOc2ccc(F)cc21	-10	1.14
CCc1c(C(=O)N(C)Cc2ccc3c(c2)OCO3)cnn1C(C)(C)C	-10	2
COCCc1nc([C@@H]2COc3ccccc3O2)n(C)n1	-5	0.52

SMILES	% Inhibition [%]	Z score
O=C(Cc1cccc(F)c1)N(c1cccc(F)c1)C1CCOCC1	-5	0.73
C[C@H]1CCCN(C(=O)CCCNC(=O)C(C)(C)C)C1	5	-0.64
COCCc1nc(CNC(=O)c2ccc3c(c2)OCO3)no1	-6	1.18
Cc1ccccc1-n1nc(C(=O)O)c(C)c1Oc1ccc(NC(=O)C2CCC2)cc1S(=O)(=O)NC(C)C	-21	2.1
O=C(Cn1cncn1)NC1(c2ccc(Cl)c(Cl)c2)CC1	0	0.02
O=C(NCc1ccc(Cl)cc1)c1cccn2c(=O)c3ccccc3nc12	30	-3.42
CC(=O)Nc1ccc(N2Cc3ncccc3C2=O)cc1F	8	-0.76
COC1(CNC(=O)Nc2cccn(CC(F)(F)F)c2=O)CCC1	-3	0.37
C[C@H]1CN(C(=O)CCc2ccncc2)CCN1	-6	1.14
O=C(NCCc1noc([C@@H]2CCCO2)n1)c1ccc(Oc2ccccc2)o1	-10	1.31
C[C@@H](CN(C)Cc1ncccc1C(=O)O)C1CCCCC1	-20	2.09
CCOc1cccc(CN2CCOC[C@H]2c2ccc(COC)o2)n1	0	-0.06
O[C@H]1[C@H](NCc2ccncc2Cl)[C@H]2CO[C@H](O2)[C@@H]1n1cncn1	-4	0.67
CC(=O)N(CCN1CCCCC1)[C@H]1CCCN(C(=O)CC2CCCC2)C1	6	-0.79
CCCc1cc(N2CCN(C(=O)c3cccc4[nH]ccc34)CC2)nc2nnc(CC)n12	-15	1.97
Cc1nn(CC(F)(F)F)c(C)c1CC(=O)N[C@H]1CCO[C@@H]1c1ccnn1C	3	-0.37
CC(=O)NCc1nc(C2CC2)nn1-c1cccc(C)n1	-2	0.37
O=C(Nc1cc(-c2cccc(F)c2F)n[nH]1)c1cscn1	-27	2.27
O=C(c1ccco1)N1CC(Oc2nccs2)C1	-21	3.27
CCNC(=O)[C@@H]1C[C@H](N)CN1Cc1csc(-c2ccccc2)n1	-22	2.56
Cc1ccc(NC(=O)N(C)C(C)C)cc1NC(=O)N(C)C(C)C	31	-3.45
Cc1ccc(CNC(=O)c2cc(-c3ccc(F)cc3)ns2)o1	3	-0.38

SMILES	% Inhibition [%]	Z score
CN1CCN(C(=O)c2cnn(-c3ncc4c(n3)-c3ccccc3CCC4)c2C2CC2)CC1	-1	0.14
CCC[C@@]1(C2CCN(C(=O)Cn3nc(C)cc3C)CC2)NC(=O)N(CCc2cccs2)C1=O	-3	0.57
COc1ccc(C(C)(C)NC(=O)c2ncc3n2CCCC3)cc1F	-18	2.54
O=S(=O)(c1cccc2nsnc12)N1CCc2ccccc2C1	-2	0.3
COc1ccc(Cl)cc1NC(=O)Cn1c2c(c(=O)n1-c1ccc(C)cc1C)Cc1cccc(OC)c1O2	-26	2.64
Cc1ccc2nc(-c3ccc(C)s3)cc(C(=O)N3CCC(Cc4ccccc4)CC3)c2c1	-5	0.77
CCNC(=O)NC(=O)COc1ccc(Cl)cc1Cl	-7	1
Cc1cc(N2C[C@H](NC(=O)CN3CC(=O)NC3=O)[C@@H](C3CC3)C2)ncn1	-8	1.06
O=C(Nc1cccc(Cl)c1)c1ccc(-c2cnc(N3CCCC3)nc2)cc1	39	-4.37
O=C(c1c(F)cccc1Cl)N1CCCN([C@H]2CCOC2)CC1	6	-0.94
O=C(Nc1ccncc1)N1CCCCC[C@H]1C(F)(F)F	-31	3.67
Cc1noc(C)c1CN1C[C@H]2CC[C@@H](C1)N(Cc1ccc(Cl)cc1F)C2	-10	1.98
CC12CCN(S(N)(=O)=O)CC1C2(F)F (stereo not given)	-5	0.47
CCc1ncc(S(=O)(=O)N[C@@]2(C#N)CC2(C)C)s1	-15	2.15
C[C@@H](CNc1ccccn1)N1CCN(C)CC1	-7	1.04
COc1ccc([C@H]2C[C@@H](c3ccc(Br)cc3)Nc3nnnn32)cc1OC	-15	2.03
c1ccc2c(c1)CCCN2Cc1nc2ccccc2o1	-7	1.48
CO[C@@H](C)C(=O)Nc1cc(C(F)(F)F)ccc1Br	-10	1.05
CO[C@@H](C)C(=O)Nc1cc(Cl)cc(Br)c1O	-3	0.61
Fc1cccnc1NCCCc1nnc2ccccn12	-12	1.22
CCOc1ccc(-c2nn3c(nc2=O)-c2ccccc2N[C@]3(C)CC)cc1	16	-1.67
Cc1csc(CNc2cc(C)c(Br)cn2)n1	-5	0.88

SMILES	% Inhibition [%]	Z score
CCc1nnc(NC(=O)c2coc(CC3CC3)n2)s1	28	-3.11
Cc1ccc2nc(N3C[C@H](O)[C@@H](N4CCCC4)C3)cc(C)c2c1	-3	0.39
CC[C@H](C)[C@@H]1NC(=O)[C@@H]2C[C@H](NC(=O)c3cccnc3Oc3ccc(Cl)cc3)CN2C1=O	-13	1.53
O=C(O)[C@H]1CCCN1Cc1ccc2cccc(Cl)c2n1	4	-0.53
Cc1cc(NCc2noc(C3CCC3)n2)nc(Nc2cccc(O)c2)n1	-16	1.83
CCN(C(=O)[C@H]1CCCN(C(C)=O)C1)c1ccc(C(F)(F)F)cc1	-4	0.82
O=S(=O)(c1ccccc1)N1CCN(S(=O)(=O)c2ccccc2)C1	-3	0.54
COC[C@H](Nc1ccc(OC)nc1)C1CC1	-1	0.14
O=C(NC[C@H]1CC(=O)N(C2CCCC2)C1)c1cccc(OCc2cccc(F)c2)c1	-15	1.95
CCC(NS(=O)(=O)C1CCOC1C)c1nc(-c2ccccc2)c[nH]1 (stereo not given)	3	-0.32
COc1ccc(-c2nc(NCc3ccccc3OC)[nH]c(=O)c2C#N)cc1	-11	2.02
C[C@H](NCc1cnc2ccccn12)c1ccccn1	-10	1.01
Cc1nc(C2=C(O)CN(c3ccc4c(c3)OCCO4)C2=N)sc1C	3	-0.42
COc1ccc(CNc2ccc(C(=O)N3CCCCC3)cc2S(=O)(=O)Nc2cccc(OC)c2)cc1	3	-0.33
Cc1cc(=O)[nH]c(NCCNC(=O)C2(C)CCC(C(=O)N(C)C)C2(C)C)n1 (stereo not given)	-8	1.18
Cn1c(=O)c2c(ncn2Cc2csc(-c3ccco3)n2)n(C)c1=O	-8	1.41
CC(C)c1csc(C2CCCN(C(C)c3nnnn3C)C2)n1 (stereo not given)	0	0.04
COc1c(C)cnc(CNS(=O)(=O)N(C)C2CCCCC2)c1C	-8	0.89
O=C1C[C@H]2CC[C@@H](CN1)N2C(=O)CN1CCOC1=O	-3	0.5

— ChEMBL document CHEMBL4888484, “Replenishing the malaria drug discovery pipeline: Screening and hit evaluation of the MMV Hit Generation Library 1 (HGL1) against asexual blood stage Plasmodium falciparum ,using a nano luciferase reporter read-out” (2022)
